Reference: PubChem BioAssay AID686978 (National Center for Advancing Translational Sciences (NCATS), 2013)
Out of some 420,000 compounds screened, about 64,000 (15%) were called active. Inconclusive results, whose numbers are uncertain, are shown with a selection of clear calls. Calls follow the shape of the dose curve; as a rule, active = well fitted inhibition curve with a large enough effect; inconclusive = small, poorly fitted or top-dose-only effect; inactive = flat fitted curve, though single readings scatter. Potencies of inconclusive entries are left out as doubtful fits.
% is scaled to controls: 0 for no effect and ±100 for the full control effect; potency is read from the fitted curve at half-maximal effect; tags tell the direction and shape of the fitted curve.

Assay: qHTS for Inhibitors of human tyrosyl-DNA phosphodiesterase 1 (TDP1): qHTS in cells in absence of CPT; also: nearly all actives have a fitted effect of over 55% in size
Conditions: DT40 Tdp1-/- hTDP1 cells, no CPT, ATP luminescence, 48 h; activity change, negative = growth inhibition: at 46.2 µM (top of the series)
Method in brief: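 Camptothecin absent (DMSO only). Human TDP1-complemented DT40 knockout cells, 400 cells/well, 37 °C for minimum 48 hr; ATP measured via CellTiter-Glo, 30 min dark incubation, luminescence.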
With `CC(=O)NC(c1ccc(F)c(F)c1)c1nc(-c2ccccc2C)cs1` (stereo unspecified) the Potency was inconclusive [inhibitor, single point].
With `CCOc1ccc(CCNC(=O)CN2CCN(Cc3ccc(Cl)cc3)C2=O)cc1OCC` the Potency was inconclusive [inhibitor, single point].
For `Cc1ccsc1/C=N/n1c(-c2cccnc2)n[nH]c1=S`, the “activity change, negative = growth inhibition” value was inactive: 12.1%.
In the case of `Cc1cc(C(=O)NC2=NCCS2)c2ccccc2n1`, the “activity change, negative = growth inhibition” value is reported as inactive: 4.48%.
For `O=CN1CCCN(C(=O)CC2C(=O)NCCN2Cc2cccc(Oc3ccccc3)c2)CC1` (stereo unspecified), the “activity change, negative = growth inhibition” value was inactive: 21.5%.
For `CN1CCN(C(=O)CCn2nc(-c3ccccc3)c3ccccc3c2=O)CC1`, the Potency was inconclusive [inhibitor, full curve, poor fit].
For `O=C1C2ON(c3ccc(Br)cc3)C(c3cccnc3)C2C(=O)N1C1CCCCC1` (stereo unspecified), the Potency was active: 18.4 µM.
With `CSc1scc2c1-c1nc(SCC(=O)C(C)(C)C)ncc1CC2` the Potency was inconclusive [inhibitor, single point].
With `CCCCSc1nc2sc3c(c2c(=O)n1-c1ccc(OC)cc1)CCN(C)C3` the Potency was inconclusive [inhibitor, single point].
With `O=C(NCc1ccc(Cl)cc1)C1CCN(S(=O)(=O)c2cc([N+](=O)[O-])ccc2Cl)CC1` the Potency was active: 16.4 µM.
For `Cc1cccc(C)c1Nc1nn2c(=O)c3cc4c(cc3nc2s1)OCO4`, the Potency was inconclusive [inhibitor, single point].
In the case of `Brc1ccc2c(c1)OCCOCCOc1cc(Br)ccc1OCCOCCOCCO2`, the Potency is reported as active: 2.91 µM.
In the case of `CCOC(=O)C1CCN(C(=O)c2ccc(N(C)S(=O)(=O)c3ccc(OC)cc3)cc2)CC1`, the Potency is reported as inconclusive [inhibitor, partial curve, poor fit].
With `COc1ccc(N(CC(=O)Nc2cccc(C(C)=O)c2)S(C)(=O)=O)cc1OC` the “activity change, negative = growth inhibition” value was inactive: -6.82%.
For `CCN(c1ccccc1)S(=O)(=O)c1ccc(OC)c(NC(=O)c2ccco2)c1`, the Potency was active: 20.6 µM.
In the case of `Cc1cccc(NC(=O)CSc2ccc(-c3ccccn3)nn2)c1`, the Potency is reported as inconclusive [inhibitor, single point].
With `CCOC(=O)CCNC(=O)N1CCCC(C(=O)c2cc(C)c(OC)c(C)c2)C1` (stereo unspecified) the Potency was inconclusive [inhibitor, single point].
For `O=C(N/N=C/c1ccc(-c2ccc([N+](=O)[O-])cc2)o1)[C@H]1C[C@@H]1c1ccccc1`, the Potency was inconclusive [inhibitor, single point].
With `CCn1cc(C(=O)NCc2ccco2)c(=O)c2cc(S(=O)(=O)N3CCc4ccccc4C3)ccc21` the Potency was inconclusive [inhibitor, partial curve, poor fit].
For `COc1cccc(NC(=O)C(=O)NCC(c2ccc3c(c2)OCO3)N2CCN(C)CC2)c1` (stereo unspecified), the Potency was inconclusive [inhibitor, single point].
In the case of `CCOC(=O)c1c(C)[nH]c(C)c1S(=O)(=O)N1CCOCC1`, the “activity change, negative = growth inhibition” value is reported as inactive: 11%.
With `CCN(CC)C(CNC(=O)CSc1nnnn1-c1cccc(F)c1)c1ccco1` (stereo unspecified) the “activity change, negative = growth inhibition” value was inactive: -26.1%.
For `Cc1ccc(S(=O)(=O)NCCC(=O)NNc2c(F)c(F)cc(F)c2F)cc1`, the Potency was inconclusive [inhibitor, single point].
With `CCc1ccc(N(CC)C(=O)c2cc3c(=O)oc4ccc(C)cc4c3s2)cc1` the activity change, negative = growth inhibition was inconclusive: -30.9% [inhibitor].
For `COc1cccc(-c2nc(S(=O)(=O)c3ccc(Cl)cc3)c(NCc3ccccc3)o2)c1`, the Potency was inconclusive [inhibitor, single point].
With `CCC1CCCCN1C(=O)COc1ccc2c(c1)OCO2` (stereo unspecified) the “activity change, negative = growth inhibition” value was inactive: 11.6%.
For `CCc1ccc(-c2cn3c(n2)sc2cc(C(=O)NC4CCCCC4)ccc23)cc1`, the Potency was active: 6.51 µM.
For `CCOc1ccccc1C=NN1CCCCCC1`, the Potency was inconclusive [inhibitor, partial curve].
In the case of `COc1cccc(-c2nc(CS(=O)CC(=O)NCc3ccccc3)c(C)o2)c1` (stereo unspecified), the Potency is reported as inconclusive [inhibitor, single point].
With `CCCCC1Cc2[nH]c(=S)[nH]c(=O)c2C(c2ccc(F)cc2)O1` (stereo unspecified) the “activity change, negative = growth inhibition” value was inactive: -3.75%.
In the case of `CC(=O)Nc1ccc(NS(=O)(=O)c2c(C(=O)N3CCC(C)CC3)c(C)n(C)c2C)cc1`, the “activity change, negative = growth inhibition” value is reported as inactive: -8.63%.
For `COC(=O)c1cc(OC)c(OC)cc1NC(=O)c1c(-c2ccccc2Cl)noc1C`, the Potency was active: 13 µM.
With `CC(=O)Nc1ccc(-c2ccnc3c2CC(C(=O)NCc2ccccc2)O3)cc1` (stereo unspecified) the Potency was active: 0.0184 µM.
With `NCCO/C=C/[C@H](N)C(=O)O` the “activity change, negative = growth inhibition” value was inactive: -0.51%.
In the case of `Cc1ccc(/C=C/C(=O)OC(C)C(=O)NC2CCCCC2C)o1` (stereo unspecified), the Potency is reported as inconclusive [inhibitor, partial curve].
In the case of `Cc1ccc(C)c(N2CCN(c3ncnc4c3cnn4-c3ccccc3)CC2)c1`, the Potency is reported as inconclusive [inhibitor, single point].
For `CCCCN(CC)CCCNC(=O)c1cc2c(=O)[nH]c3ccccc3c2n1C`, the Potency was inconclusive [inhibitor, single point].
In the case of `CCCN(c1ccccc1C(=O)O)S(=O)(=O)c1ccc2c(c1)n(C)c(=O)n2C`, the “activity change, negative = growth inhibition” value is reported as inactive: -7.21%.
With `CC(=O)Nc1cc(-c2ccccc2CN(C)C)cn2c(-c3ccc(F)c(Cl)c3)cnc12` the Potency was inconclusive [inhibitor, single point].
With `CC1CCN(C(=O)CN(c2ccc(Oc3ccccc3)cc2)S(C)(=O)=O)CC1` the Potency was active: 13 µM.
For `COc1ccc(NC(=O)CCCSc2nc(-c3ccco3)cc(C(F)(F)F)n2)cc1OC`, the Potency was inconclusive [inhibitor, single point].
With `Nc1ncnc2c1ccn2[C@H]1CN(Cc2ccc3c(c2)OCO3)C[C@@H](COC(=O)c2ccccc2)O1` the Potency was inconclusive [inhibitor, partial curve].
In the case of `Cc1ccc(CNC(=O)CCC2CCCN(Cc3ccc4cccc(F)c4n3)C2)o1` (stereo unspecified), the Potency is reported as inconclusive [inhibitor, single point].
With `COc1cc(C(=S)N2CCOCC2)ccc1OS(=O)(=O)c1ccc(Cl)cc1` the Potency was inconclusive [inhibitor, single point].
For `Cc1cccc(-n2cc(-c3ccccc3)c3c(N4CCOCC4)ncnc32)c1`, the Potency was inconclusive [inhibitor, partial curve, poor fit].
For `COCCNc1oc(-c2ccccc2)nc1S(=O)(=O)c1ccc(Br)cc1`, the Potency was inconclusive [inhibitor, single point].
With `COc1ccccc1/C=C/C=N/NC(=O)c1cccs1` the Potency was active: 6.51 µM.
In the case of `c1ccc2sc(C3CCN(Cc4nnnn4Cc4ccc5c(c4)OCO5)CC3)nc2c1`, the Potency is reported as active: 18.4 µM.
In the case of `COc1ccc(NC(=O)Nc2ccc(C(=O)N3CCOCC3)cc2)cc1`, the “activity change, negative = growth inhibition” value is reported as inactive: -5.72%.
With `CSCCC(NC(N)=O)C(=O)NCc1ccccc1Cl` (stereo unspecified) the Potency was inconclusive [inhibitor, single point].
With `O=c1[nH]nnc2sc3c(c12)CCCC3` the Potency was inconclusive [inhibitor, single point].
For `Cc1ccc(C)c(CN2CCC(CNC(=O)Nc3ccc(Cl)cc3)CC2)c1`, the Potency was inconclusive [inhibitor, single point].
In the case of `COc1ccc(C(=O)N[C@H](C(=O)OCc2nc3ccsc3c(=O)[nH]2)C(C)C)cc1`, the “activity change, negative = growth inhibition” value is reported as inactive: -1.68%.
For `COc1ccc(NC(=O)CCOc2ccccc2)c(OC)c1`, the Potency was inconclusive [inhibitor, partial curve].
With `COc1ccc(S(=O)(=O)Nc2ccccc2OC)cc1NC(=O)Cc1cccs1` the Potency was active: 20.6 µM.
For `O=C(CC1CCCC1)N1CCN(S(=O)(=O)c2cccc(F)c2)CC1`, the Potency was inconclusive [inhibitor, single point].
In the case of `O=C1c2sc3nc4ccccc4n3c2C(=O)N1c1ccccc1Cl`, the Potency is reported as active: 7.31 µM.
For `C=CCN1C(=O)C(O)(CC(=O)c2ccc(Cl)cc2)c2ccccc21` (stereo unspecified), the Potency was inconclusive [inhibitor, single point].
For `Cc1ccc2[nH]nc(C(=O)N3CCCC(C(=O)c4ccc(Cl)cc4)C3)c2c1` (stereo unspecified), the Potency was active: 16.4 µM.
For `CCOC(=O)/C(=N/O)C1=NC(C)(C)Cc2cc(C)c(C)cc21`, the “activity change, negative = growth inhibition” value was inactive: 0.0248%.
In the case of `COc1cccc(NC(=O)C2(C)CCN2Cc2ccc(OC(C)C)cc2)c1` (stereo unspecified), the Potency is reported as inconclusive [inhibitor, single point].
For `Cc1cccc(NC(=O)CN(CC2CCCO2)C(=O)c2oc3ccc(F)cc3c2C)c1C` (stereo unspecified), the Potency was inconclusive [inhibitor, single point].
With `CCCS(=O)(=O)N1CCn2c(nc3ccccc32)C1` the “activity change, negative = growth inhibition” value was inactive: -3.36%.
For `Cc1cc(N2CCCN(C)CC2)nc2cc(Cl)ccc12`, the Potency was inconclusive [inhibitor, single point].
In the case of `c1ccc(C(c2ccccc2)c2nc(-c3cccnc3)no2)cc1`, the Potency is reported as inconclusive [inhibitor, single point].
In the case of `CC(=O)N1CCc2cc(S(=O)(=O)CCC(=O)N(C)Cc3ccco3)ccc21`, the “activity change, negative = growth inhibition” value is reported as inactive: 1.56%.
For `CCCCn1c(SCC(=O)N2CCC(C(=O)OCC)CC2)nc2cc(S(N)(=O)=O)ccc21`, the “activity change, negative = growth inhibition” value was inactive: -11.5%.
In the case of `Cc1cccc(-c2noc(CN(C3CCCCC3)S(=O)(=O)c3ccc(F)cc3)n2)c1`, the Potency is reported as active: 14.6 µM.
In the case of `Cc1ccc(/C=C2\SC(=S)N(CCCC(=O)NC3CCCC3)C2=O)cc1`, the Potency is reported as active: 18.4 µM.
In the case of `Cc1c(C(=O)NC2CCCc3ccccc32)oc2ccc(S(=O)(=O)N3CCOCC3)cc12` (stereo unspecified), the Potency is reported as inconclusive [inhibitor, partial curve].
For `Cc1ccc(CN2C(=O)c3ccccc3NC23CCN(Cc2ccccc2)CC3)cc1`, the Potency was inconclusive [inhibitor, partial curve].
